From ChEMBL document CHEMBL1201862, “PubChem BioAssay data set” (2004) come the findings set out here.

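Following 48 hours of exposure in 96-well plates, responses at five concentrations were used to interpolate endpoints linearly. Here, GI50 denotes the concentration required for 50% inhibition of growth.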 Active and inactive are the calls of the source. Rule as the data show it: active = GI50 up to about 1.1 µM and inactive = higher.

For this experiment, the system named is NCI-H322M. Description: inhibition of tumour cell growth, NCI panel, 48 h.
Take `COc1cc2c(NCCN(C)C)nc3c4cc5c(cc4ccc3c2cc1OC)OCO5`: the GI50 is inactive: 3.05 µM.
To `NCCNS(=O)(=O)c1ccc(N)cc1` belongs inactive: > 100 µM; to `c1cc(CCN2CCCCC2)ccn1`, inactive: > 100 µM.
With `O=C(c1ccco1)N(C(=S)OCCOc1ccccc1)c1ccccc1`, the GI50 was inactive: 22.4 µM.
For `CC(C)(C)OC(=O)N1CCC(C(=O)O)CC1`, the GI50 is inactive: > 100 µM.
As to `O=C(O)/C=C/C(=O)Nc1cccc2c1-c1ccccc1C2=O`, the GI50 was inactive: 13.9 µM.
For the compound `Cc1cc2nc3c(N)nn(CCN(C)C)c3nc2cc1C`, the GI50 is inactive: 43.9 µM.
Then `CCn1c2c(c3ccccc31)[C@@H](c1ccc(Cl)cc1)CC1C(=O)N(c3ccccc3)C(=O)C21` (some centres not stated), with inactive: 72.1 µM; and `COc1cc(C2=C(c3cc(OC)c4ccccc4c3OC)C(=O)c3ccccc3C2=O)c(OC)c2ccccc12`, with inactive: 82.2 µM; and `COc1cc(/C=C/C(=O)Oc2ccc(NC(C)=O)cc2)ccc1C(=O)O/C=C/c1ccccc1`, with inactive: > 100 µM.
As for `CC(=O)Nc1ccc2c(C)c3c4ccccc4n(C)c3nc2n1`, the GI50 is inactive: 24.5 µM.
To `NC1=NC(Cn2nc(-c3ccccc3)c3ccccc3c2=O)=NNC(=O)N1` belongs inactive: > 100 µM.
Then `CC(C)NCC(O)c1ccc(OCc2ccccc2)c(OCc2ccccc2)c1-c1ccccc1` (configuration not stated), with inactive: 1.63 µM.
For `O=C1C(c2ccccc2)=C(c2ccccc2)C1(Cl)Cl`, the GI50 is inactive: 11.3 µM.
Take `Oc1ncnc2c1nnn2CCCCCCCCCCCCn1nnc2c(O)ncnc21`: the GI50 was inactive: > 100 µM.
Turning to `Cc1nc(N)sc1C(=O)/C=C\c1ccc2c(c1)OCO2`, the GI50 was inactive: > 100 µM.
Turning to `O=c1ccn([C@@H]2C[C@H](CO)C[S+]([O-])C2)c(=O)[nH]1` (some centres not stated), the GI50 is inactive: > 100 µM.
For `Cc1ccc(N2C[N+](c3ccccc3)=NC(c3ccccc3)=N2)cc1`, the GI50 is inactive: 46.7 µM.
Then `Cc1ccccc1C(C#N)C(=O)C(=O)Nc1nc([N+](=O)[O-])cs1` (configuration not stated), with inactive: > 100 µM; and `O=c1ccn(C2OC(CN(O)CCC3C(CO)OC(n4ccc(=O)[nH]c4=O)C3O)C(O)C2O)c(=O)[nH]1` (configuration not stated), with inactive: > 100 µM; and `CCCN1CN(c2ccccc2)C2(CCN(CCCC(=O)c3ccc(F)cc3)CC2)C1=O`, with inactive: 3.84 µM.
With `Cc1cc(C)nc(NS(=O)(=O)c2ccc(Nc3c4ccccc4nc4c(C(=O)Nc5ccc(S(N)(=O)=O)cc5)cccc34)cc2)n1`, the GI50 was inactive: 79.6 µM.
Turning to `CC(=O)O/N=C/c1cc2c(cc1Br)OCO2`, the GI50 was inactive: > 349 µM.
Regarding `CN1C(=O)[C@@H]2N(CSC2(C)C)C1=S`, the GI50 was inactive: > 100 µM.
To `O=C(Nc1ccc(Cl)cc1Cl)C1C(=O)C(=O)N(c2ccc(Cl)cc2Cl)C1=O` (configuration not stated) belongs inactive: > 100 µM; to `CCOc1ccc(NC(=O)/C(=N\N)C(C(=O)OC)c2nc3ccc(Cl)cc3nc2O)cc1` (configuration not stated), inactive: > 100 µM.
With `O=C(CCC=C(S(=O)(=O)c1ccccc1)S(=O)(=O)c1ccccc1)c1ccccc1`, the GI50 was inactive: 12.3 µM.
As for `COc1c(O)c2c3c(c(C)cc(O)c3c1O)C(=O)C(O)(C(C)(C)C(C)=O)C2=O` (configuration not stated), the GI50 was inactive: > 100 µM.
With `CC(=O)OCc1c2ccccc2c(C)c2c1cc(F)c1ccccc12`, the GI50 is inactive: 46.7 µM.
Consider `C=C1CC2(CC(c3ccccc3C)OC(c3ccccc3C)C2)OC1=O` (configuration not stated), for which the GI50 is inactive: 15 µM.
To `Nc1ccc(CCN2CCN(CCCc3ccccc3)CC2)cc1` belongs inactive: > 100 µM; to `COc1ccccc1/C=C/c1cnccn1`, inactive: > 10 µM; to `Cn1c(-c2cccs2)cc(-c2cccs2)c1-c1ccsc1`, inactive: > 100 µM.
To `COc1cc(C=C2N=C(c3ccccc3)N(n3c(-c4ccccc4)nc4ccccc4c3=O)C2=O)cc(OC)c1OC` belongs inactive: 20.8 µM.
With `C[N+](C)(N)Cc1nc(-c2ccc(Cl)cc2)no1`, the GI50 was inactive: > 100 µM.
For the compound `Cc1nc(Nc2ccc(Cl)c(Cl)c2)sc1C(/C=C/c1ccc2c(c1)OCO2)=N/Nc1ccc([N+](=O)[O-])cc1[N+](=O)[O-]`, the GI50 is inactive: > 100 µM.
Regarding `O=c1c([Se]c2coc3ccccc3c2=O)coc2ccccc12`, the GI50 was inactive: 3.33 µM.
For `CCOC(=O)/C(=C\n1c(=O)sc2ccccc21)C(=O)c1ccccc1`, the GI50 was inactive: > 100 µM.
Then `COc1ccc2c(c1)N=C1CSC(c3cccc(Br)c3)N1C2` (configuration not stated), with inactive: 18.5 µM; and `CC1(O)CC2C(CC1SC1CC3C(CC1(C)O)C3(C)C)C2(C)C` (configuration not stated), with inactive: > 100 µM.
As to `CCOc1ccc2nc3nc(O)nc(C)c3c(NC(C)(CO)CO)c2c1`, the GI50 is inactive: > 100 µM.
`Cn1c2ccc(Cl)cc2c2ccc3c(c21)C(=O)C=CC3=O`: the GI50 is inactive: > 10 µM.
In the case of `Cc1cccc(C(O)c2ccccn2)c1O` (configuration not stated), the GI50 is inactive: > 100 µM.
To `Cc1ccc(S(=O)(=O)N/N=C/C(Br)=C(/Br)C(=O)O)cc1` belongs inactive: 18.5 µM.
Consider `CCCC1NC(=O)C(CC(C)C)NC(=O)c2cccc(n2)C(=O)NC(CC(C)C)C(=O)NC(CCC)C(=O)NC(C(=O)OC)CCCCNC1=O` (configuration not stated), for which the GI50 was inactive: 38.7 µM.
To `COc1cnc2cc(C(=O)O)c3c([N+](=O)[O-])cccc3c2c1` belongs inactive: > 100 µM; to `CCC(=O)c1c(NOC2OC(COC(C)=O)C(OC(C)=O)C(OC(C)=O)C2OC(C)=O)nc(OC)n(C)c1=O` (configuration not stated), inactive: > 100 µM; to `CC1NCCC(CC(=O)O)C1CC(=O)O` (configuration not stated), inactive: > 100 µM.
Then `CC(=O)Oc1ccc2c(=O)c(C(C)=O)coc2c1`, with inactive: > 100 µM; and `O=C1N=C2Sc3ccc4ccccc4c3N2C1=O`, with inactive: 26.1 µM; and `Cc1sc(Cc2ccccc2)nc1-c1ccc(N)cc1`, with inactive: 42 µM.
For `COC(=O)C1CCCCCCCCCCC12SCCCS2` (configuration not stated), the GI50 was inactive: 23.7 µM.
Then `Cn1cnnc1SC(F)(F)c1nc2ccccc2o1`, with inactive: > 100 µM; and `Cc1[nH]nc(C(=O)N/N=C/c2ccccc2Cl)c1/N=N\N(C)C`, with inactive: > 66.7 µM.
To `O=C(NC12CC3CC(CC(C3)C1)C2)n1cnc2c(Cl)ncnc21` belongs inactive: 30.9 µM.
With `CC(=O)NC1=C(NCC(C)C)C(=O)c2ccccc2C1=O`, the GI50 is inactive: > 100 µM.
Then `COC(=O)c1c(CC(=O)OC(C)C)cc2n(c1=O)Cc1c-2nc2ccccc2c1OC`, with inactive: > 100 µM.
For `COc1cc2c3c(c1OC)C(=O)C(=O)C1=C3N(CCC1)CC2`, the GI50 was inactive: 34.4 µM.
Then `COS(=O)c1cc(Cl)cc(Cl)c1O` (configuration not stated), with inactive: > 100 µM; and `O=C1Oc2ccccc2C(=O)/C1=C\Nc1nc(-c2ccccc2)cs1`, with inactive: 36.9 µM.
Then `Nc1ccn(C2OC(COP(=O)(O)O)C(O)C2O)c(=O)n1` (configuration not stated), with inactive: 74.6 µM; and `NS(=O)(=O)c1ccc(/N=N/c2ccc(O)c(O)c2)cc1`, with inactive: 22.4 µM.
